Measured values published in PubChem BioAssay AID1745853 (National Center for Advancing Translational Sciences (NCATS), 2022).
The list shows a part of the results. The main result of the screen is listed elsewhere. These columns were measured beside it and carry no call.

Tests used:
Assay in all cases: Primary Screen for Target Class Profiling of Small Molecule Inhibitors of Methyltransferases
[1] = target: Glycine N-methyltransferase (Homo sapiens) (UniProt Q14749); settings: purified enzyme, MTase-Glo SAH luminescence; measured here: GNMT inhibition; at 40 µM; stronger effect = lower value
Method in brief: (§1)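 Each enzyme was assayed with SAM and its substrate. SAH formation detected by MTase-Glo luminescence; single-point 40 uM screen[…].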

[2] = target: Guanidinoacetate N-methyltransferase (Homo sapiens) (UniProt Q14353); settings: purified enzyme, MTase-Glo SAH luminescence; measured here: GAMT inhibition; at 40 µM; stronger effect = lower value
Method in brief: as §1

[3] = target: Histamine N-methyltransferase (Homo sapiens) (UniProt P50135); settings: purified enzyme, MTase-Glo SAH luminescence; measured here: HNMT inhibition; at 40 µM; stronger effect = lower value
Method in brief: as §1

[4] = target: Nicotinamide N-methyltransferase (Homo sapiens) (UniProt P40261); settings: purified enzyme, MTase-Glo SAH luminescence; measured here: NNMT inhibition; at 40 µM; stronger effect = lower value
Method in brief: as §1

[5] = target: Phenylethanolamine N-methyltransferase (Homo sapiens) (UniProt P11086); settings: purified enzyme, MTase-Glo SAH luminescence; measured here: PNMT inhibition; at 40 µM; stronger effect = lower value
Method in brief: as §1
% is set by controls: 0 for no effect and ±100 for the full control effect.

| Structure (SMILES) | activity change, negative = inhibition [1] | activity change, negative = inhibition [2] | activity change, negative = inhibition [3] | activity change, negative = inhibition [4] | activity change, negative = inhibition [5] |
| --- | --- | --- | --- | --- | --- |
| COCCNC(=O)C[C@@H]1C[C@@H](C(C)C)[C@H](CNC(=O)C2CC2)C=C1C | -8.53% | -7.27% | -11.4% | -16.5% | -5.85% |
| O=C(/C=C/C#Cc1cccc(NS(=O)(=O)c2ccccc2)c1)NO | -7.67% |  | 13.9% | 2.56% | 10.9% |
| C=C1CC2C(C)(CCC(=O)O)C(C(C)(C)O)CCC2(C)C2(C(=O)OC)C(=O)C(C)(O)C(=O)C12C (centres undefined) | -3.02% | -3.66% | 6.52% | -19% | -13.6% |
| c1ccc(O[C@H]2COCCN(Cc3cccc4c3OCO4)C2)cc1 | -2.69% | 0.698% | 0.298% | 0.395% | 0.371% |
| CN(C)C/C=C/C(=O)Nc1ccc(C(=O)Nc2cccc(Nc3ncc(Cl)c(-c4c[nH]c5ccccc45)n3)c2)cc1 | -42.9% | -1.04% | -2.07% | -56.3% | -1.39% |
| C#CCNC(=O)C1CCc2nnc(-c3ccc(Cl)cc3Cl)n21 (centres undefined) | -3.51% | -4.67% | -1.79% | -4.29% | -6.93% |
| COCCCN1C(=O)c2cc3occc3n2CC1(C)C(=O)NC1CCC(C)CC1 (centres undefined) | -8.16% | 2.98% | -3.46% | -4% | -8.26% |
| COc1nccnc1NC1CCN(C(=O)c2ccco2)CC1 | -1.01% | 0.079% | -0.336% | -7.84% | 9.38% |
| CCC(C)NC(=O)c1ccc2c(=O)n(C(C)C)c3nn(CC(=O)Nc4ccccc4C)c(=O)n3c2c1 (centres undefined) | 0.12% | 3.7% | 0.563% | -4.16% | 0.678% |
| COC(=O)c1ccc(O[C@@H]2O[C@H](CO)[C@@H](O)[C@H](O)[C@H]2O)c(OC)c1 | -0.434% | -5.89% | 8.85% | -18.8% | 2.11% |
| O=c1c2ccccc2n2c(-c3ccc(F)c(F)c3)nnc2n1Cc1ccccc1 | -4.03% | -0.419% | 4.95% | -6.5% | -4.21% |
| Cc1cc2[nH]c(=O)[nH]c2cc1S(=O)(=O)N1CCC(Cc2ccccc2)CC1 | -1.34% | 0.78% | -0.114% | -14.9% | -5.21% |
| COc1ccc(Cl)cc1NC(=O)Cn1nc2n(CCC(C)C)c(=O)c3ccccc3n2c1=O | -3.54% | -0.825% | 0.498% | -6.25% | -1.99% |
| Cc1ccc(NC(=O)Cn2nc3n(C4CC4)c(=O)c4ccc(C(=O)NC(C)C)cc4n3c2=O)c(C)c1 | -4.69% | -1.89% | -4.65% | -6.69% | -2.46% |
| Cc1ccc(S(=O)(=O)c2ccc([N+](=O)[O-])o2)cc1 | -3.2% | -9.95% | -4.28% | -15.8% | -10.8% |
| OCC(CO)(CO)NCC(O)Cn1c2ccc(Cl)cc2c2cc(Cl)ccc21 (centres undefined) | -47.6% | -14.3% | -48.7% | -25.4% | -41% |
| CC(C)C(NS(=O)(=O)c1ccc2c(c1)oc(=O)n2C)C(=O)N1CCN(c2ccc(F)cc2)CC1 (centres undefined) | 0.026% | 4.89% | 1.98% | 5.64% | -1.91% |
